# Results taken from PubChem BioAssay AID360 (National Center for Advancing Translational Sciences (NCATS), 2006).
# In all, about 48,000 compounds went through this assay and about 550 (1.1%) were called active. Another 4% or so got no clear call; they are omitted. Rule as the data show it: active = potency below about 15 µM; inconclusive = mostly about 16 µM to 33 µM; inactive = weaker than that. Some of the results follow.
# Biological target: Lysosomal acid glucosylceramidase (Homo sapiens) (UniProt P04062)
# Assay: Glucocerebrosidase;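 also: the screen sought inhibitors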
# Details: purified enzyme, resorufin glucoside fluorescence (screen aimed at inhibitors), 20 min; series mostly up to 77 µM
# Summary of the method: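 Wild-type enzyme at 0.2 nM final in 50mM citric acid/KH2PO4, 10mM sodium taurocholate, 0.01% tween-20, pH 5.9, with resorufin beta-D-glucopyranoside at 30 uM final. Compounds titrated, 20 min at RT, red fluorescence read; AC50 from titration.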
# Potency is read from the fitted curve at half-maximal effect.
# Sequence of UniProt P04062 (P04062 whole entry, looked up): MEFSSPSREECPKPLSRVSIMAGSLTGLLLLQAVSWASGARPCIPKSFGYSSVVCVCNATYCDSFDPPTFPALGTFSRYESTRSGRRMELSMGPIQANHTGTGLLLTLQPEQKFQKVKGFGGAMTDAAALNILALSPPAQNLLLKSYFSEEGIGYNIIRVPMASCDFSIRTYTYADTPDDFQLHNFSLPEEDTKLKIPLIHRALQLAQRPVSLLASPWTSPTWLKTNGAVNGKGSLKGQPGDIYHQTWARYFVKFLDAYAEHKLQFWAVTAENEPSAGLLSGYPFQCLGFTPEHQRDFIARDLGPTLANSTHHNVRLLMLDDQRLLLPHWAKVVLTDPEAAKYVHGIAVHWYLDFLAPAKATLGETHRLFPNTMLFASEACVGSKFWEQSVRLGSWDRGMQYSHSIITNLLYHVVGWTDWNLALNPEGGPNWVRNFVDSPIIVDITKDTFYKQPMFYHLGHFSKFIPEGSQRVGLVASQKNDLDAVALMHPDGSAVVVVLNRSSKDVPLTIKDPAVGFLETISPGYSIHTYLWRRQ
row,SMILES,Potency
1,COc1ccc(CNC(=O)COc2ccc(S(=O)(=O)NC(C)C)cc2)cc1,inactive: > 76.9 µM
2,Cc1nc2ncccn2c1-c1csc(NCc2ccco2)n1,inactive
3,O=C(COc1ccccc1F)Nc1ccc(S(=O)(=O)NCc2ccco2)cc1,inactive: > 76.9 µM
4,COc1ccc(-c2cc3ccc(OCc4nn[nH]n4)cc3oc2=O)cc1,inactive: > 76.9 µM
5,O=C(NCCN1CCOCC1)c1cc(=O)[nH]c2ccc(Br)cc12,inactive: > 76.9 µM
6,COc1ccc(OC)c(C(c2nnnn2Cc2ccccc2)N2CCN(C)CC2)c1 (stereo not given),inactive: > 76.9 µM
7,c1ccc(-c2nn3c(Cn4nnc5ccccc54)nnc3s2)cc1,inactive: > 76.9 µM
8,Cc1ccc(C(=O)C2COC(=O)C2)cc1 (stereo not given),inactive: > 76.9 µM
9,COc1ccccc1C(=O)N1CCN(c2cccc(C(F)(F)F)c2)CC1,inactive: > 76.9 µM
10,O=C1CN(C(=O)CSc2nnc(-c3ccccc3)n2Cc2ccc3c(c2)OCO3)c2ccccc2N1,inactive: > 76.9 µM
11,COCCn1c(SCC(=O)N2CCCCC2)nc2ccccc2c1=O,inactive: > 76.9 µM
12,COc1ccccc1NC(=O)CN1CCN(Cc2ccccc2)CC1,inactive: > 76.9 µM
13,Fc1ccccc1CSc1nnc(-c2ccccc2)o1,inactive: > 76.9 µM
14,CCC(=O)Nc1nc(CC(=O)Nc2ccccc2)cs1,inactive: > 76.9 µM
15,CCc1ccccc1Nc1nc(N)nc(CSCC(=O)c2cc(C)n(C)c2C)n1,inactive: > 76.9 µM
16,COc1ccc(OCC(=O)Nc2ccccc2C(=O)N2CCCC2)cc1,inactive: > 76.9 µM
17,O=C(NCc1ccc2c(c1)OCO2)C1CCCN1C(=O)Nc1cccc(Cl)c1 (stereo not given),inactive: > 76.9 µM
18,CC1(C)CC(=O)C(C(c2ccncc2)C2C(=O)CC(C)(C)CC2=O)C(=O)C1,inactive: > 76.9 µM
19,CN1CCN(c2nc(-c3ccncc3)nc3ccccc23)CC1,inactive: > 76.9 µM
20,Cn1cccc1C(=O)NC(=O)COC(=O)Cc1coc2ccc3ccccc3c12,inactive: > 76.9 µM
21,O=C(CSc1ncc(-c2ccc(F)cc2)n1Cc1ccco1)Nc1nccs1,inactive: > 76.9 µM
22,O=C(COC(=O)CSCC(=O)N1CCCCC1)NCc1ccc(F)cc1,inactive: > 76.9 µM
23,COc1ccc(-n2c(N)c(C(=O)NCC3CCCO3)c3nc4ccccc4nc32)c(OC)c1 (stereo not given),inactive: > 76.9 µM

row,SMILES,Potency
1,CCN1CCC2(CC1)C(C#N)=C(N)Oc1c2sc2nc(C)cc(C)c12,inactive: > 76.9 µM
2,COc1cc(C(=O)OCC(=O)c2cc(C)n(C)c2C)cc(NC(=O)c2ccco2)c1OC,inactive: > 76.9 µM
3,C=CCn1c(COc2ccc(F)cc2)nnc1SCC(=O)NC(=O)NCc1ccco1,active: 15.2 µM
4,CCn1c(SCc2nc3ccccc3[nH]2)nnc1-c1ccncc1,inactive: > 76.9 µM
5,COc1cccc2cc(C(=O)C3=C(O)C(=O)N(CCCN(C)C)C3c3ccncc3)oc12 (stereo not given),inactive: > 76.9 µM
6,CCOC(=O)CCCNC(=O)COC(=O)CCC(=O)c1ccc(F)cc1,inactive: > 76.9 µM
7,O=C(NCCCN1CCCC1=O)c1ccc2c(c1)NC(=O)C(N1CCOCC1)S2 (stereo not given),inactive: > 76.9 µM
8,c1ccc2c(c1)oc1c(N3CCN(Cc4ccc5c(c4)OCO5)CC3)ncnc12,inactive: > 76.9 µM
9,COCC(C)n1c(C)cc(C(=O)CSc2nc3ccccc3c(=O)[nH]2)c1C (stereo not given),inactive: > 76.9 µM
10,COc1ccc(C(=O)Cn2c(Br)nc3c2c(=O)n(C)c(=O)n3C)cc1,inactive: > 76.9 µM
11,COCCn1c(C)cc(C(=O)COC(=O)c2n[nH]c3ccccc23)c1C,inactive: > 76.9 µM
12,CCCS(=O)(=O)c1nnnn1-c1cccc(OC)c1,inactive: > 76.9 µM
13,COc1ccc(CCNC(=O)C2CCN(S(=O)(=O)N3CC(C)CC(C)C3)CC2)cc1OC (stereo not given),inactive: > 76.9 µM
14,COC(=O)CSc1nnc(C)n1-c1cccc(C#N)c1,inactive: > 76.9 µM
15,Cc1ccc(CNC(=O)CN2CCN(Cc3ccc(C)cc3)C2=O)cc1,inactive: > 76.9 µM
16,COc1ccc2[nH]c3nc(SCc4nnc(-c5ccc(C)cc5)o4)nnc3c2c1,inactive: > 76.9 µM
17,Cc1ccc(N2CC(C(=O)NCC3CCCO3)CC2=O)cc1Cl (stereo not given),inactive: > 76.9 µM
18,CCCCNC(=O)C1CCCN1C(=O)Nc1cccc(OC)c1 (stereo not given),inactive: > 76.9 µM
19,O=S(=O)(NCCOCC(F)(F)F)c1ccc2oc3ccccc3c2c1,inactive: > 76.9 µM
20,CCCOc1ccc(-c2cnc(SCC(N)=O)nc2N)cc1,inactive
21,COc1ccc(-c2noc(C3CCCN(C(=O)c4ccccc4OC)C3)n2)cc1OC (stereo not given),inactive: > 76.9 µM
22,Cc1onc(-c2ccncc2)c1C(=O)O,inactive: > 76.9 µM
23,Cc1cc(-c2nnc3sc(-c4ccc(Cl)cc4Cl)nn23)n[nH]1,inactive: > 76.9 µM

row,SMILES,Potency
1,c1ccc(-c2noc(COc3ccc4c(c3)OCO4)n2)cc1,inactive: > 76.9 µM
2,O=C(Nc1nccs1)C1CCCN1S(=O)(=O)c1ccc(F)cc1 (stereo not given),inactive: > 76.9 µM
3,O=C(O)C1CCCN1c1ncnc2c1oc1ccccc12 (stereo not given),inactive: > 76.9 µM
4,Cc1cc(C)c(S(=O)(=O)NCCC2CCCN2C)c(C)c1 (stereo not given),inactive: > 76.9 µM
5,CCOCCN1CCN(c2c(C)c(C)nc3cc(-c4cc(OC)cc(OC)c4)nn23)CC1,inactive: > 76.9 µM
6,CC(NS(=O)(=O)c1ccccc1)C(c1cccs1)N1CCN(c2ccccc2)CC1 (stereo not given),inactive: > 76.9 µM
7,COCc1c(C(=O)OCC(=O)N2c3ccccc3CC2C)oc2ccccc12 (stereo not given),inactive: > 76.9 µM
8,CCOC(=O)c1[nH]c(C)c(C(=O)c2cc(F)ccc2F)c1C,inactive: > 76.9 µM
9,COc1cc(NC(=O)CS(=O)(=O)c2ccccc2)cc(OC)c1OC,inactive: > 76.9 µM
10,COc1ccc(S(=O)(=O)N2CCCCCC2)cc1C(=O)OCc1c(C)noc1C,inactive: > 76.9 µM
11,Cc1occc1-c1nnc(SCC(=O)NCCc2ccccc2)n1C(C)c1ccccc1 (stereo not given),inactive: > 76.9 µM
12,COc1ccc2nc3oc(C(=O)N4CCN(c5cccc(C(F)(F)F)c5)CC4)cc3cc2c1,inactive: > 76.9 µM
13,O=S(=O)(c1cccc(S(=O)(=O)N2CCC(n3nnc4ccccc43)CC2)c1)N1CCCCC1,active: 10.5 µM
14,CCNC(=O)N1CCNC(=O)C1CC(=O)Nc1ccc(C(=O)OCC)cc1 (stereo not given),inactive: > 76.9 µM
15,COc1ccc(-c2cc(C(=O)Nc3c(C)nn(Cc4ccccc4Cl)c3C)no2)cc1OC,inactive: > 76.9 µM
16,O=C(CSCC(=O)NCc1ccco1)NCc1ccco1,inactive: > 76.9 µM
17,Cc1ccc2c(c1)C1CN(C)CCC1N2CC(=O)N(C)c1ccccc1 (stereo not given),inactive: > 76.9 µM
18,CCCCn1c(SCC(=O)NCc2ccco2)nnc1-c1ccco1,inactive: > 76.9 µM
19,Cc1cc(C)c2c(CC(=O)N(CCC#N)Cc3cccnc3)coc2c1,inactive: > 76.9 µM
20,CCn1cc(C(=O)NCCOC)c(=O)c2ccc(C)nc21,inactive: > 76.9 µM
21,CNc1oc(-c2cccc3ccccc23)nc1C#N,inactive: > 76.9 µM
22,CC(=O)Nc1ccc2c(c1)CCCN2C(=O)c1ccccc1,inactive: > 76.9 µM
23,Cc1cc(C)c2c(c1)cc(C)c1nnc(SCC(=O)Nc3cc(C)on3)n12,inactive: > 76.9 µM

row,SMILES,Potency
1,CC(C)COC(=O)c1nnsc1NC(=O)Nc1ccccc1,inactive: > 76.9 µM
2,Clc1ccc(C(c2nnnn2C2CCCC2)N2CCN(Cc3ccncc3)CC2)cc1 (stereo not given),inactive: > 76.9 µM
3,Cc1cc(Nc2ccc(C)c(F)c2)n2ncnc2n1,inactive: > 76.9 µM
4,CC(C)(C)NS(=O)(=O)c1ccc(OCC(=O)Nc2ccc3c(c2)OCCO3)cc1,inactive: > 76.9 µM
5,CC(C)(C)c1ccc(S(=O)(=O)n2c(CN3CCOCC3)nc3ccccc32)cc1,inactive: > 76.9 µM
6,O=c1c2cc(Cl)ccc2[nH]c(=S)n1Cc1ccco1,inactive: > 76.9 µM
7,COc1cc(C)c(C(C)C)cc1S(=O)(=O)N1CCOCC1,inactive: > 76.9 µM
8,O=C(CCN1C(=O)C2C3C=CC(C3)C2C1=O)Nc1ccc2c(c1)OCO2 (stereo not given),inactive: > 76.9 µM
9,COc1ccc(S(=O)(=O)Nc2ccc(O)c3ccccc23)cc1,inactive: > 76.9 µM
10,CC1Cc2ccccc2N1C(=O)CSc1nnc(NC(=O)Cc2cccs2)s1 (stereo not given),inactive: > 76.9 µM
11,CCC(=O)N1CCc2cc(Br)cc(S(=O)(=O)CCC(=O)NCc3ccco3)c21,inactive: > 76.9 µM
12,CC(C)OCCCn1c(-c2ccco2)nc2nc3ccccc3nc21,inactive: > 76.9 µM
13,CCNc1nc(N)nc(Oc2ccc(C(=O)OC)cc2)n1,inactive: > 76.9 µM
14,C[C@@H](Nc1nc(-c2ccccc2)nc2c1oc1ccccc12)C(=O)O,inactive: > 76.9 µM
15,O=C(CSc1ccccc1Cl)c1ccco1,inactive: > 76.9 µM
16,c1coc(CSCc2cn3cccnc3n2)c1,inactive: > 76.9 µM
17,CCOC(=O)C1CCN(C(=O)Nc2ccc(OC)c(OC)c2)CC1,inactive: > 76.9 µM
18,COc1ccc2c(c1)cc1n2CCN=C1N,inactive
19,COc1ccccc1CNc1n[nH]c(NCc2ccccc2OC)n1,inactive: > 76.9 µM
20,CC(=O)c1ccc(OCC(C)C)c(CN2CCCCC2)c1,inactive: > 76.9 µM
21,O=C(CC1SC2=NCCN2C1=O)Nc1ccc(Br)cc1 (stereo not given),inactive: > 76.9 µM
